According to PubChem BioAssay AID743279 (National Center for Advancing Translational Sciences (NCATS), 2014):
About 17,000 (4.7%) of roughly 360,000 compounds were called active. Inconclusive means that the source gave no clear call. Such entries were picked first, then a sample of the others. No stated cut-off is given here; in the data, active means activity change below about -50%; inconclusive means mostly about -30% to -49%; inactive means weaker than that.

Assay: qHTS for Inhibitors of Inflammasome Signaling: IL-1-beta AlphaLISA Primary Screen
Conditions: THP-1 LPS/ATP IL-1B secretion, 16 h; at 57.5 µM, stronger effect = lower value
How it was run: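 THP-1 cells pretreated 1 hr with compounds (up to 57.5 uM final), then stimulated with LPS (250 ng/mL final) plus ATP (1.25 mM final); secreted IL-1B measured by AlphaLISA after 16 hr, decreased signal indicating inhibition.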
On the % scale 0 is the no-effect control and ±100 the full control effect.

Row | SMILES | activity change
1 | COc1ccc(OCC(=O)Nc2ccccc2OC)cc1 | inactive: 5.01%
2 | N#Cc1cnn(-c2cccc(Cl)c2)c1-n1cccc1 | inactive: 17.4%
3 | COc1ccc2oc(-c3ccncc3)cc(=O)c2c1 | inconclusive: -49.6%
4 | COc1cccc(-c2sc3ccccc3c2-c2ccc(OCCN3CCCCC3)cc2)c1 | inconclusive: -39.7%
5 | O=[N+]([O-])c1cccc(N(CC(O)CN2CCCCC2)S(=O)(=O)c2ccccc2)c1 (stereo not given) | inconclusive: -32.6%
6 | O=C(COC(=O)c1cc(S(=O)(=O)N2CCCCC2)ccc1N1CCOCC1)c1ccc(F)cc1 | inconclusive: -37.9%
7 | Cc1ccc(C)c(N(CC(=O)NC2CCCC2)C(=O)CCC(=O)Nc2nccs2)c1 | inconclusive: -45.7%
8 | CCCCN(C(=O)c1[nH]c(C)c(C(=O)OCC)c1C)c1c(N)n(CCCC)c(=O)[nH]c1=O | inactive: 15.1%
9 | CC1CCc2c(sc3nc(CN4CCN(S(=O)(=O)c5ccccc5[N+](=O)[O-])CC4)[nH]c(=O)c23)C1 (stereo not given) | inconclusive: -41.1%
10 | Cn1cc(C(=O)NC2CCCCC2)c(=O)c2cc(S(=O)(=O)N3CCOCC3)ccc21 | inactive: 33.3%
11 | Cc1nn(C)c(C)c1CN(C)S(=O)(=O)c1ccc(F)cc1 | inactive: 27.8%
12 | O=C(Nc1nc2ccccc2s1)c1cnccn1 | inactive: 10.6%
13 | Cc1cc(O)ccc1-c1cc(C(=O)NCc2cc(C(F)(F)F)cc(C(F)(F)F)c2)[nH]n1 | active: -53.4%
14 | CC(C)C(=O)N1CCC2(CC1)Oc1ccc(Cl)cc1C(=O)C21CC(c2ccccc2)=NO1 (stereo not given) | inconclusive: -38.7%
15 | CC(C)CNC(=O)c1ccccc1NC(=O)c1ccccc1N(C)S(=O)(=O)c1ccccc1 | inconclusive: -33.5%
16 | Cc1cccc2cc(CN(Cc3ccco3)C(=O)Nc3cccc(C#N)c3)c(Cl)nc12 | inconclusive: -39.8%
17 | CCOc1ccc(/C=C/[N+](=O)[O-])c2ccccc12 | active: -101%
18 | O=C(COC(=O)c1n[nH]c(=O)c2ccccc12)Nc1cccc(S(=O)(=O)N2CCOCC2)c1 | inactive: -9.98%
19 | CC(C)c1nnc(SCC(=O)NC2CCCCC2)n1C | inactive: 6.6%
20 | Cc1nc2scc(C)n2c(=O)c1S(=O)(=O)NCCc1ccccc1 | inactive: 47.6%
21 | CC1CN(CCCCOc2ccc(Cl)c3ccccc23)CC(C)O1 (stereo not given) | inconclusive: -44.4%
22 | CC1CN(c2nc(-c3ccc(Br)cc3)nnc2-c2ccccc2)CC(C)N1 (stereo not given) | active: -105%
23 | O=C(Nc1ccc2c(c1)OCCO2)C(CCc1ccccc1)N1CCN(C/C=C/c2ccccc2)CC1 (stereo not given) | inconclusive: -31.1%
24 | COc1ccc(Br)cc1CN(C)C(=O)c1ccccc1OCc1c(C)noc1C | active: -65%
25 | O=C(Nc1ccc2c(c1)CCCN2C(=O)c1cccs1)c1c(F)cccc1Cl | inconclusive: -43%
26 | c1c2c(cc3sc(N4CCOCC4)nc13)OCO2 | inconclusive: -31.8%
27 | COc1ccc(NC(C)C(=O)Nc2ccc(C(C)(C)C)cc2)cc1Cl (stereo not given) | active: -53.7%

Row | SMILES | activity change
28 | CCCCNC(=S)Nc1ccccc1Cc1ccccc1 | inactive: -12.7%
29 | Cn1nc(C(=O)OCC(=O)c2ccc(Cl)cc2)c2ccccc2c1=O | inactive: 18.5%
30 | CCNc1nc(NCC)n2c(SC(C(=O)Nc3cc(C)ccc3C)c3ccccc3)nnc2n1 (stereo not given) | inconclusive: -46.9%
31 | CCCCCCCCN1C(=O)[C@H](CC(=O)NCc2ccccc2)C[C@@]2(C(=O)OCC)CCC=C12 | inconclusive: -38.2%
32 | COc1ccccc1OCC(=O)NNc1c2ccccc2nc2ccccc12 | inconclusive: -37.9%
33 | C=CCOC(=O)C1=C[C@@H](c2coc3ccccc3c2=O)C[C@@H](OCc2ccc(CO)cc2)O1 | inactive: -11.9%
34 | C#CCOCCOCCOCCNc1nc(N2CCN(C(=O)CCCCCCCCCCNC(=O)[C@@H](CCC(=O)O)n3cc(CCCCCN)nn3)CC2)nc(N2CCN(C(=O)CCCCCCCCCCNC(=O)[C@H](CCCCN)n3cc(C[C@@H](C)CC)nn3)CC2)n1 | inconclusive: -36.8%
35 | C#CCOCCOCCOCCNc1nc(N2CCN(C(=O)CCCCCCCCCCNC(=O)[C@@H](CCSC)n3cc(CCO)nn3)CC2)nc(N2CCN(C(=O)CCCCCCCCCCNC(=O)[C@H](CO)n3cc(CCCCCN)nn3)CC2)n1 | active: -82.2%
36 | COc1cc(Br)cc(C2C3=C(CCCC3=O)N(c3ccc(F)cc3)C3=C2C(=O)CCC3)c1O | inconclusive: -38.4%
37 | O=C(CSc1nc2ccccc2[nH]1)Nc1cccc(S(=O)(=O)N2CCOCC2)c1 | inconclusive: -42.4%
38 | Cc1ccc(NC(=O)c2cc(-n3cnnc3)ccc2Cl)cc1 | inactive: -7.21%
39 | CC1=NNC(=O)C1C(c1ccc(F)cc1)C(C#N)C#N (stereo not given) | inconclusive: -40.7%
40 | BrC(/C=N/Nc1nc(N2CCOCC2)nc(N2CCOCC2)n1)=C/c1ccccc1 | inconclusive: -44.3%
41 | Cc1ccc(C)c(NC(=S)NC(NC(=O)/C=C/c2ccccc2)C(Cl)(Cl)Cl)c1 (stereo not given) | inconclusive: -33.6%
42 | CCCn1c(SCC(=O)Nc2cccc(C(=O)OC)c2)nnc1-c1cccnc1 | inconclusive: -41.1%
43 | O=C(Cn1nnc(-c2ccccc2)n1)c1ccccc1 | inactive: 8.1%
44 | NC(=O)C1CCN(c2oc(-c3cccs3)nc2S(=O)(=O)c2ccc(Cl)cc2)CC1 | active: -54.7%
45 | Cc1ccc(Cc2c(-c3ccc(Br)cc3)nc3ccc(Br)cn23)cc1 | inactive: 45.3%
46 | CCOc1cc2[nH]c(=S)n(CC3CCCO3)c(=O)c2cc1OCC (stereo not given) | inconclusive: -33.8%
47 | CCCCN(CCCNC(=O)c1ccc2c(c1)NC(=O)CN2C)c1ccccc1 | active: -103%
48 | COc1ccc(S(=O)(=O)N(C)C[C@H]2Oc3ccc(NC(=O)Nc4ccc5c(c4)OCO5)cc3CC(=O)N([C@@H](C)CO)C[C@@H]2C)cc1 | inconclusive: -32.5%
49 | Cc1cc(F)ccc1-c1cc(C(=O)NCc2cccc(C(F)(F)F)c2)[nH]n1 | inconclusive: -33.6%
50 | O=C(N/N=C/c1cc([N+](=O)[O-])ccc1O)Nc1ccccc1 | inactive: 111%
51 | O=C1NC[C@H](Cc2ccccc2)N(C[C@@H]2CCCN2C[C@H](Cc2ccccc2)N2C[C@H](Cc3ccc(O)cc3)N(CCc3ccccc3)C(=O)C2=O)C1=O | active: -60.3%
52 | Cc1nnc(C)c2c(C)n(-c3ccc(Cl)c(N)c3)c(C)c12 | inactive: -9.27%
53 | COc1ccccc1N(C)S(=O)(=O)c1ccc(Cl)c(C(=O)OCc2c(C)noc2C)c1 | inconclusive: -30.8%
54 | CCN(CC)CCCNC(=O)c1nn2c(C(F)(F)F)cc(-c3ccccc3)nc2c1Cl | inconclusive: -33.6%

Row | SMILES | activity change
55 | C[C@@H]1CN([C@H](C)CO)C(=O)c2c(c3ccccc3n2C)-c2ccccc2CO[C@H]1CN(C)Cc1ccc(C(F)(F)F)cc1 | inconclusive: -39.6%
56 | CC(C)(C)C1C=C(Sc2ccccc2)C(=O)O1 (stereo not given) | inconclusive: -31.6%
57 | Cc1cc(SCc2ccc(Br)cc2)nc(=O)[nH]1 | inconclusive: -35.3%
58 | CN(c1ccccc1)S(=O)(=O)c1cccc(NC(=O)CCN2C(=O)C3CCCCC3C2=O)c1 (stereo not given) | inactive: 37.1%
59 | NC(=O)COc1ccc(/C=C2\C(=O)ON=C2c2ccccc2)cc1 | inconclusive: -31.4%
60 | C=CC[C@H](CC(=O)N(CCO)Cc1ccccc1)C(=O)NC[C@@H](OC(=O)[C@@H](CC=C)Cc1ccc(F)cc1)c1ccccc1 | active: -69.4%
61 | CC1CN(c2nc(Nc3ccccc3)nc(N)c2[N+](=O)[O-])CC(C)O1 (stereo not given) | inconclusive: -43.3%
62 | Cc1cc(C)cc(NC(=S)N(CCN(C)C)Cc2cccs2)c1 | inconclusive: -30.6%
63 | Cc1cc2c3c(c1)C1(C(=O)N3C(C)(C)CC2C)C(C#N)=C(N)Oc2n[nH]c(C)c21 (stereo not given) | inconclusive: -33.2%
64 | CCOc1ccc(S(=O)(=O)N(C)c2ccc(OCC(=O)NCC3CCCO3)cc2)cc1 (stereo not given) | inactive: 11.8%
65 | Fc1ccc(Sc2ccccc2CNC2=NCCN2)cc1 | inconclusive: -44.4%
66 | CC(C)OCCCNC(=O)c1ccc(C2SCC(=O)N2Cc2ccco2)cc1 (stereo not given) | inconclusive: -37.1%
67 | CN1CCC(=O)N([C@H](CSc2ccc(Br)cc2)Cc2ccccc2)CC1 | inconclusive: -40%
68 | Cc1ccc(NC(=S)NCc2ccc3c(c2)OCO3)cc1C | active: -69.1%
69 | CCCn1nc(NC(=O)c2ccncc2)c2cc3ccccc3nc21 | inconclusive: -31.8%
70 | CN(C)CCNc1nc2sc3c(c2c(=O)n1Cc1ccccc1)CCCCC3 | active: -95.7%
71 | COc1ccc(-c2nnn(CC(=O)N(CCCN3CCOCC3)C(C(=O)NC3CCCC3)c3ccco3)n2)cc1 (stereo not given) | inconclusive: -30.1%
72 | COc1ccc(N(CC(=O)N2CCN(c3ccc(Cl)cc3)CC2)S(=O)(=O)c2c(C)n[nH]c2C)cc1 | active: -62.4%
73 | COc1ccc(CCN(C)C(=O)Cc2ccc(-c3ccccc3)cc2)cc1OC | active: -54.8%
74 | CCOC(=O)C1(CCOc2ccccc2)CCN(Cc2cc(OC)cc(OC)c2)CC1 | active: -89.9%
75 | CCn1c(NCc2c[nH]c3ccccc23)nc2ccccc21 | inconclusive: -38.4%
76 | CN(CC(=O)Nc1cc(C(F)(F)F)ccc1-n1cncn1)Cc1ccccc1N1CCOCC1 | inconclusive: -44.7%
77 | CCc1ccc(OCC(=O)Nc2nnc(C3CCCC3)s2)cc1 | inactive: 0%
78 | CCCCCC(=O)N1C[C@@H](O)[C@H](n2cc(-c3ccc(F)cc3)nn2)C[C@@H]1c1ccc(OC)cc1 | inconclusive: -33%
79 | CCOc1nc(Nc2ccc(OC)cc2)nc(OCC)n1 | inconclusive: -30%
80 | C(=N\Nc1nc2ccccc2s1)/c1cccs1 | inconclusive: -44.1%
